The assay has as its target T1, Perilipin1, HA-tagged (mouse) (UniProt Q8CGN5).
T1 sequence: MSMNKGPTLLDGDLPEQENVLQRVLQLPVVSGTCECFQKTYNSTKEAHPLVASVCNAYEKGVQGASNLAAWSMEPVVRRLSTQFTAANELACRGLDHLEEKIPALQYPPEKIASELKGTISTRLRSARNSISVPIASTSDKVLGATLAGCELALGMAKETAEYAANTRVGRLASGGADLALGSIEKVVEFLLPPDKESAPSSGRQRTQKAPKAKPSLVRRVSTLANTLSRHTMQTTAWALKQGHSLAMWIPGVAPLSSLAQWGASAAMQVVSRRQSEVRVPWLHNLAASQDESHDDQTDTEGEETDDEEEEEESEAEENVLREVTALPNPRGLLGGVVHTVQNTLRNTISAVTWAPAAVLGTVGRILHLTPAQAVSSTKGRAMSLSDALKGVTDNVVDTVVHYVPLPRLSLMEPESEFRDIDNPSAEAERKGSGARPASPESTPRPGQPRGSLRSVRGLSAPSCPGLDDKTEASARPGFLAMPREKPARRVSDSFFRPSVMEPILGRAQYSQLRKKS
As to the kind of experiment: co-IP; 3T3-L1 preadipocytes transfected with BAP31-Flag constructs and Plin1-HA; IP lysis buffer 20 mM Tris pH 7.5, 150 mM NaCl, 1% Triton X-100; anti-HA (and/or anti-Flag) antibody overnight at 4°C, protein A/G beads; immunoblot with anti-Flag.

No constants are given. Whether binding was seen depends on the method and setting. Binding seen in cells or lysates may run through a third protein. Some binding calls cover weakened binding; strength is not graded here. Where a sequence is shown, tags or fusion partners need not be part of it.

B1: BAP31 mutant 1-165, Flag-tagged (lacks the C-terminal cytoplasmic portion) (domain or fragment, UniProt Q61335 1-165)
chain: MSLQWTTVATFLYAEVFAVLLLCIPFISPKRWQKVFKSRLVELVVTYGNTFFVVLIVILVLLVIDAVREILKYDDVTEKVNLQNNPGAMEHFHMKLFRAQRNLYIAGFSLLLSFLLRRLVTLISQQATLLASNEAFKKQAESASEAAKKYMEENDQLKKGAAEDG
As to B1, the binding result is “no binding”.

B2: B-cell receptor-associated protein 31, Flag-tagged, full length (protein, UniProt Q61335 1-245)
chain: MSLQWTTVATFLYAEVFAVLLLCIPFISPKRWQKVFKSRLVELVVTYGNTFFVVLIVILVLLVIDAVREILKYDDVTEKVNLQNNPGAMEHFHMKLFRAQRNLYIAGFSLLLSFLLRRLVTLISQQATLLASNEAFKKQAESASEAAKKYMEENDQLKKGAAEDGDKLDIGNTEMKLEENKSLKNDLRKLKDELASTKKKLEKAENEALAMQKQSEGLTKEYDRLLEEHAKLQASVRGPSVKKEE
For B2, the binding result is recorded as “binds”.

B3: truncated BAP31 containing amino acids 123-245, Flag-tagged (domain or fragment, UniProt Q61335 123-245)
chain: ISQQATLLASNEAFKKQAESASEAAKKYMEENDQLKKGAAEDGDKLDIGNTEMKLEENKSLKNDLRKLKDELASTKKKLEKAENEALAMQKQSEGLTKEYDRLLEEHAKLQASVRGPSVKKEE
For the molecule B3, the binding entry is given as “binds”.

B4: truncated BAP31 containing amino acids 165-245, Flag-tagged (domain or fragment, UniProt Q61335 165-245)
chain: GDKLDIGNTEMKLEENKSLKNDLRKLKDELASTKKKLEKAENEALAMQKQSEGLTKEYDRLLEEHAKLQASVRGPSVKKEE
In the case of B4, the binding result was “binds”.

B5: BAP31 mutant 1-124, Flag-tagged (lacks the C-terminal cytoplasmic portion) (domain or fragment, UniProt Q61335 1-124)
chain: MSLQWTTVATFLYAEVFAVLLLCIPFISPKRWQKVFKSRLVELVVTYGNTFFVVLIVILVLLVIDAVREILKYDDVTEKVNLQNNPGAMEHFHMKLFRAQRNLYIAGFSLLLSFLLRRLVTLIS
In the case of B5, the binding result is “no binding”.

The values above are taken from PMC10092757.
